{"source": "the supplement of paper PMC9446081", "note": "The campaign covered roughly 39,000 compounds. About 220 (0.56%) showed activity. Some of the results follow.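 Note: static incubation at 37 °C against the wild-type strain, values averaged over two biological replicates.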"}
{"tested_on": "Escherichia coli K-12 BW25113", "test": "relative growth (OD600 normalised to plate interquartile mean) (fraction); higher = less growth inhibition, active = 0.2 or less", "settings": "50 µM; LB; incubation time: overnight (16-24 h)"}
{"compound": "COc1ccc([C@H]([C@@H](O)Cc2ccccc2)N(CC#C[C@@H](O)c2ccccc2)[C@@H](Cc2ccccc2)C(OC)OC)cc1", "relative growth": "inactive: 1.02"}
{"compound": "CC(C)C#Cc1cnc2c(c1)C(=O)N([C@@H](C)CO)C[C@H](C)[C@@H](CN(C)C(=O)c1ccc3c(c1)OCO3)O2", "relative growth": "inactive: 1.04"}
{"compound": "C[C@H]1CN([C@@H](C)CO)C(=O)Cc2cc(NS(=O)(=O)c3cn(C)cn3)ccc2O[C@@H]1CN(C)Cc1ccncc1", "relative growth": "inactive: 1.01"}
{"compound": "Cc1noc(C)c1NC(=O)Nc1ccc2c(c1)C(=O)N([C@H](C)CO)C[C@H](C)[C@H](CN(C)C(=O)c1ccccc1)OCCCC[C@@H](C)O2", "relative growth": "inactive: 0.998"}
{"compound": "O=C(Nc1cccc2cccnc12)[C@H]1[C@@H](c2ccc(C(F)(F)F)cc2)CC(=O)N1C(=O)OCc1ccccc1", "relative growth": "inactive: 0.958"}
{"compound": "C[C@H]1CCCCO[C@H](CN(C)Cc2ccc(Cl)c(Cl)c2)[C@@H](C)CN([C@@H](C)CO)C(=O)c2cc(NC(=O)Nc3ccc(F)cc3)ccc2O1", "relative growth": "inactive: 1.01"}
{"compound": "CN(C)CCCNC(=O)C[C@@H]1CC[C@@H]2[C@H](COc3ccc(NC(=O)c4ccc5c(c4)OCO5)cc3C(=O)N2C)O1", "relative growth": "inactive: 1.02"}
{"compound": "COc1ccc(S(=O)(=O)Nc2ccc3c(c2)C(=O)N([C@H](C)CO)C[C@H](C)[C@H](CN(C)CC2CCCCC2)OCCCC[C@H](C)O3)cc1", "relative growth": "inactive: 1"}
{"compound": "CCOC(=O)Cn1c(=O)c(C(N)=S)cn(C(C)C)c1=O", "relative growth": "inactive: 0.973"}
{"compound": "C[C@H](CO)N1C[C@H](C)[C@@H](CN(C)C(=O)Nc2cccc3ccccc23)OCCCC[C@H](C)Oc2ccc(NC(=O)Nc3cccc4ccccc34)cc2C1=O", "relative growth": "inactive: 1.02"}
{"compound": "Cc1noc(C)c1S(=O)(=O)N(C)C[C@H]1Oc2c(NS(=O)(=O)c3cn(C)cn3)cccc2C(=O)N([C@H](C)CO)C[C@@H]1C", "relative growth": "inactive: 0.992"}
{"compound": "N#Cc1ccc(-c2ccccc2)cn1", "relative growth": "inactive: 1"}
{"compound": "O=C(C[C@H]1CC[C@@H](NC(=O)C2CC2)[C@H](CO)O1)NCCCN1CCOCC1", "relative growth": "inactive: 0.988"}
{"compound": "C[C@@H]1CCCCO[C@H](CN(C)C)[C@H](C)CN([C@@H](C)CO)C(=O)c2cc(NC(=O)Nc3cccc4ccccc34)ccc2O1", "relative growth": "inactive: 1.02"}
{"compound": "Cc1noc(C)c1S(=O)(=O)Nc1ccc2c(c1)CC(=O)N([C@@H](C)CO)C[C@@H](C)[C@H](CN(C)S(=O)(=O)c1ccccc1)O2", "relative growth": "inactive: 1.02"}
{"compound": "CS(=O)(=O)N1CCOC[C@]2(CN(C(=O)c3ccc[nH]3)CCO2)C1", "relative growth": "inactive: 1.02"}
{"compound": "CN1C(=O)c2cc(NC(=O)Nc3ccccc3F)ccc2OC[C@@H]2O[C@H](CC(=O)NCc3ccc(-c4ccccc4)cc3)CC[C@@H]21", "relative growth": "inactive: 1.08"}
{"compound": "CC(=O)N1CCN(CCOc2ccc(C3CCN(C4=Nn5c(nnc5C(F)(F)F)CC4)CC3)cc2)CC1", "relative growth": "inactive: 0.985"}
{"compound": "COc1ccccc1NC(=O)N(C)C[C@H]1Oc2ncc(C#CCN(C)C)cc2C(=O)N([C@@H](C)CO)C[C@H]1C", "relative growth": "inactive: 1"}
{"compound": "COc1ccc(NC(=O)Nc2ccc3c(c2)CC(=O)N([C@H](C)CO)C[C@H](C)[C@H](CN(C)Cc2ccc(C(F)(F)F)cc2)O3)cc1", "relative growth": "inactive: 0.999"}
{"compound": "C[C@H]1CN([C@@H](C)CO)C(=O)c2cc(NC(=O)CCCCCC(=O)Nc3ccccc3N)ccc2O[C@H]1CN(C)C(=O)Nc1ccccc1", "relative growth": "inactive: 0.944"}
{"compound": "COc1ccc(S(=O)(=O)N2C[C@@H](O)COC[C@H]3O[C@H](CC(=O)N[C@H]4CCN(Cc5ccccc5)C4)CC[C@@H]32)cc1", "relative growth": "inactive: 0.98"}
{"compound": "COc1ccc(NC(=O)Nc2cccc3c2O[C@@H](CN(C)S(=O)(=O)c2cn(C)cn2)[C@@H](C)CN([C@H](C)CO)C3=O)cc1", "relative growth": "inactive: 0.982"}
{"compound": "CC(C)CC#Cc1ccc2c(c1)O[C@@H](CN(C)C(=O)Cc1cccnc1)[C@@H](C)CN([C@@H](C)CO)S2(=O)=O", "relative growth": "inactive: 1.04"}
{"compound": "C[C@H](CO)N1C[C@H](C)[C@@H](CN(C)Cc2ccccc2)OCCCC[C@H](C)Oc2ccc(NC(=O)Nc3cccc4ccccc34)cc2C1=O", "relative growth": "inactive: 1.03"}
{"compound": "Cc1ccc2nc(-c3ccc(NC(=O)C4CCC4)cc3)sc2c1", "relative growth": "inactive: 1.02"}
{"compound": "C[C@H]1CN([C@@H](C)CO)C(=O)c2c(c3ccccc3n2C)-c2ccccc2CO[C@H]1CN(C)Cc1ccc2c(c1)OCCN2C", "relative growth": "inactive: 0.977"}
{"compound": "C[C@@H]1CN([C@H](C)CO)C(=O)c2cc(NC(=O)Nc3ccc(C(F)(F)F)cc3)ccc2O[C@@H](C)CCCCO[C@@H]1CN(C)S(=O)(=O)c1cccs1", "relative growth": "inactive: 1.01"}
{"compound": "CCCNC(=O)N1C[C@@H](O)COC[C@H]2O[C@H](CC(=O)NCc3ccncn3)CC[C@@H]21", "relative growth": "inactive: 0.992"}
{"compound": "O=C(NCc1nc2ccccc2[nH]1)C1=C[C@@H](c2ccc(C(F)(F)F)cc2)C[C@@H](OCc2ccc(CO)cc2)O1", "relative growth": "inactive: 1.03"}
{"compound": "CCCn1ncnc1[C@@H](C)N", "relative growth": "inactive: 1.03"}
{"compound": "Cc1ccc(S(=O)(=O)N(C)C[C@@H]2Oc3c(NS(=O)(=O)c4cn(C)cn4)cccc3C(=O)N([C@@H](C)CO)C[C@@H]2C)cc1", "relative growth": "inactive: 1.02"}
{"compound": "C[C@@H]1CN([C@H](C)CO)C(=O)c2ccccc2-c2ccccc2CO[C@H]1CN(C)S(=O)(=O)c1ccc(C(F)(F)F)cc1", "relative growth": "inactive: 1.05"}
{"compound": "C[C@H](CO)N1C[C@H](C)[C@@H](CN(C)S(=O)(=O)c2ccccc2)Oc2cc(C#Cc3ccncc3)ccc2S1(=O)=O", "relative growth": "inactive: 1.02"}
{"compound": "C=CCNC(=O)[C@H]1[C@@H]2C(=O)O[C@@H](c3ccccc3)[C@@H](c3ccccc3)N2[C@@H](c2ccc(OCCO)cc2)[C@]12C(=O)N(C(=O)OCCOC)c1ccc(C#Cc3ccc(OC)cc3)cc12", "relative growth": "inactive: 1.07"}
{"compound": "Cc1cc(NN)nc(SCC(=O)NN)n1", "relative growth": "inactive: 0.962"}
{"compound": "C[C@@H]1CCCCO[C@H](CN(C)CC2CCCCC2)[C@H](C)CN([C@H](C)CO)C(=O)c2cc(NC(=O)CCCN(C)C)ccc2O1", "relative growth": "inactive: 0.972"}
{"compound": "COc1cc(/C=C/c2cc(O)cc(O[C@@H]3O[C@H](CO)[C@@H](O)[C@H](O)[C@H]3O)c2)ccc1O[C@@H]1O[C@H](CO)[C@@H](O)[C@H](O)[C@H]1O", "relative growth": "inactive: 0.981"}
